Experimental data as given in PubChem BioAssay (NCI).
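Values below derive from 48-hour exposures of cells grown in 96-well plates, with endpoints linearly interpolated between the two concentrations bracketing the appropriate inhibition level. At the GI50, growth is halved. Definition used: TGI = concentration required for complete inhibition of growth.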

Tested on: NCI-H322M lung
Assay: NCI tumour cell line growth inhibition, 48 h

Row | Compound | GI50 [µM] | TGI [µM]
1 | CN(C)CCNC(=O)OCCCCOc1cc(O)c2c(=O)cc(-c3ccccc3)oc2c1 | 6.64 | 19.8
2 | COc1ccc2c3nc4cc(C)c(C)cc4nc3n(CCN(C)C)c2c1 | 2.41 | 13.2
3 | O=C(Nc1ccc(I)cc1)Nc1nc2ccc([N+](=O)[O-])cc2s1 | 3.13 | 11.7
4 | CCOP(=O)(CC(F)(F)C(F)(F)F)OCC | 16 | 37.5
